Measured values as given in PubChem BioAssay AID1030 (National Center for Advancing Translational Sciences (NCATS), 2008).
The campaign covered roughly 220,000 compounds. About 16,000 (7.3%) were called active. The shares of active, inactive and inconclusive entries below differ from those in the screen. Calls follow the shape of the dose curve; as a rule, active = well fitted inhibition curve with a large enough effect (not every such curve was filed as active); inconclusive = small, poorly fitted or top-dose-only effect, or another doubt; inactive = no such curve, though single readings can be large or run the other way. Potencies of inconclusive entries are doubtful fits and often do not repeat.

Biological target: Aldehyde dehydrogenase 1A1 (Homo sapiens) (UniProt P00352)
UniProt P00352, sequence (P00352 whole entry, looked up): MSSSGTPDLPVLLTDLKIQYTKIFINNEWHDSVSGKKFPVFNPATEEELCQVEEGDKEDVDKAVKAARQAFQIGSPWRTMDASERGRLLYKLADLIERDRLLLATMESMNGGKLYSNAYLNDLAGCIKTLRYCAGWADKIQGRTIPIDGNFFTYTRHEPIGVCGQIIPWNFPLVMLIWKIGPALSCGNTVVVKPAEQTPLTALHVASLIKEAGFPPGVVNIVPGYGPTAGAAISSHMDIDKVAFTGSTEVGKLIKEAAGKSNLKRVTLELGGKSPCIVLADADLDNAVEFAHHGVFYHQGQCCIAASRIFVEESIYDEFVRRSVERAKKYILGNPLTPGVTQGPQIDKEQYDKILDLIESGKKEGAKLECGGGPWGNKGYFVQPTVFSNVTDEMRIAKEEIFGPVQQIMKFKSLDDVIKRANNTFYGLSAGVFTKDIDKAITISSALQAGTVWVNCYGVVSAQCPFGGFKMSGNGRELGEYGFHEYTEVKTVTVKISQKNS
Experiment: qHTS Assay for Inhibitors of Aldehyde Dehydrogenase 1 (ALDH1A1)
Conditions: Purified ALDH1A1, NADH fluorescence, propionaldehyde substrate; series mostly up to 75.3 µM
Potency is read from the fitted curve at half-maximal effect; tags tell the direction and shape of the fitted curve.

Potency, active:
COc1cccc(-n2nnnc2SCC(=O)Nc2cccc(NC(C)=O)c2)c1 7.08 µM
CN1CCNC(=O)C1CC(=O)NCC1(c2ccccc2)CCCCC1 (stereo not given) 15.8 µM
Cc1cccc(-n2c(O)c(C=NC3CCS(=O)(=O)C3)c3ccccc3c2=O)c1 (stereo not given) 15.8 µM
CCOC(=O)c1c(NC(=O)/C=C/C(=O)O)sc(C)c1-c1ccc(C(C)(C)C)cc1 28.2 µM

Potency, inconclusive:
CC(C)(C)NS(=O)(=O)c1ccc(CCC(=O)N2CCCCC2)cc1 39.8 µM [inhibitor, single point]
c1ccc(-n2ncc3c(NCc4ccccn4)ncnc32)cc1 35.5 µM [inhibitor, single point]
Cc1ccc2cc(CN(C(=O)c3ccco3)c3ccccc3)c(=O)[nH]c2c1 8.91 µM [inhibitor, full curve]
COc1cc(SC)ccc1C(=O)Nc1ccc2c(c1)OCCO2 10 µM [inhibitor, partial curve]
CC1(C)CCCN(C(=O)c2ccc3c(c2NCCO)C(=O)c2ccccc2C3=O)C1 28.2 µM [inhibitor, partial curve]
COc1ccccc1NC(=O)Nc1ccccc1C(=O)NCCCN1CCOCC1 39.8 µM [inhibitor, single point]
O=c1c2ccccc2nc(N2CCN(c3ccccc3)CC2)n1Cc1ccccc1 39.8 µM [inhibitor, single point]
CSCCC(N=C(NS(=O)(=O)c1ccc(Br)cc1)c1ccccc1)C(=O)O (stereo not given) 23.8 µM [inhibitor, single point]
COCCOC(=O)C1=C(C)NC(=O)NC1c1ccc(-c2ccc(F)cc2)o1 (stereo not given) 39.8 µM [inhibitor, single point]
Cc1ccc(C(C[N+](=O)[O-])c2c(C)[nH]n(-c3ccccc3)c2=O)cc1 (stereo not given) 31.6 µM [inhibitor, partial curve]
CC(C)CC1=NN(C(=O)c2cccnc2)C(O)(C(F)(F)F)C1 (stereo not given) 35.5 µM [inhibitor, single point]
COCCC(=O)N1CCCC(C(=O)c2ccc3c4c(cccc24)CC3)C1 (stereo not given) 25.1 µM [inhibitor, partial curve]
COc1ccccc1CN(Cc1cc2cc(C)ccc2[nH]c1=O)Cc1nnnn1Cc1ccco1 10 µM [inhibitor, partial curve]
CCc1n[n+](CC(=O)c2ccccc2)c(N)s1 39.8 µM [inhibitor, single point]
CC(=O)c1cccc(NC(=O)CCNS(=O)(=O)c2cccc(C(C)=O)c2)c1 28.2 µM [inhibitor, single point]
Oc1ccc(NCc2cccc(OCc3ccc(F)cc3)c2)cc1 39.8 µM [inhibitor, single point]
CC(C)C1Nc2c(C(=O)O)cccc2C(Nc2ccccc2C(=O)O)C1(C)C (stereo not given) 25.1 µM [inhibitor, single point]
CN(C)c1ccc(NC(=O)c2ccc(COc3cccc(Cl)c3)o2)cc1 14.1 µM [inhibitor, partial curve]
O=C(/C=C/c1cccc([N+](=O)[O-])c1)c1ccc2c(c1)OCCO2 14.1 µM [inhibitor, partial curve]
N#Cc1c(N)nc2c(c1-c1cccc(O)c1)CCCCCC2 28.2 µM [inhibitor, partial curve]
O=C(Nc1cccc2ccccc12)NC1CCCc2ccccc21 (stereo not given) 35.5 µM [inhibitor, single point]
Cc1cc2nnc(SCC(=O)Nc3cc(S(=O)(=O)N4CCOCC4)ccc3Cl)n2c2ccccc12 39.8 µM [inhibitor, single point]
CC(=O)c1c(C)[nH]c(C(=O)COC(=O)c2cc(S(=O)(=O)N(C)c3ccccc3)ccc2Cl)c1C 39.8 µM [inhibitor, single point]
C=CCOc1ccc(/C=N/NC(=O)C(=O)Nc2ccccn2)cc1OC 39.8 µM [inhibitor, single point]
Cn1c(NC(=O)/C=C\c2ccccc2)cc(=O)n(C)c1=O 31.6 µM [inhibitor, single point]
O=C(N/N=C\c1ccc(-c2ccccc2[N+](=O)[O-])o1)C1COc2ccccc2O1 (stereo not given) 39.8 µM [inhibitor, single point]
CCN(CC)CCCCn1c(-c2ccccc2)nc2c(N3CCOCC3)nc(C)nc21 31.6 µM [inhibitor, partial curve]
COc1ccc(CCNC2=CC(=O)N(c3ccc(F)cc3)C2=O)cc1 39.8 µM [inhibitor, single point]
CCC(Sc1nncn1C)C(=O)Nc1nnc(-c2ccccc2Cl)s1 (stereo not given) 1.58 µM [inhibitor, single point]

Potency, inactive:
Nc1c(O)cccc1C(=O)C[C@@H](N)C(=O)O
COc1ccc(CCNC(=O)c2nn(C)cc2Cl)cc1
O=C1C=C(Nc2ccc(O)cc2)C(=O)c2ccccc21
CC(=O)c1nnn(-c2c(F)cccc2F)c1C
CCOC(=O)CC1=C(C(=O)OCC)C(c2cccs2)C(C#N)=C(N)O1 (stereo not given)
COc1cc(OC)cc(C(=O)Nc2ccccc2N2CCOCC2)c1
Cc1sc(NC(=O)C2CCCCC2C(=O)O)c(C(N)=O)c1-c1ccccc1 (stereo not given)
CC1CCN(CC(=O)Nc2cc(C(F)(F)F)ccc2Cl)CC1
COc1cc(NC(=O)C2CCCCC2)c(OC)cc1NC(=O)CCC(=O)NCc1ccco1
Cn1cnnc1SCc1ccc(C(=O)N=Nc2c(O)n(C)c3ccccc23)cc1
CC1=C(C(=O)OCCc2ccccc2)C(c2ccsc2)NC(=O)N1C (stereo not given)
COc1ccc(-c2cc(C(=O)N3CCOCC3)no2)cc1OC
